Reference: the supplement of paper PMC3334620
Whole data set: some 33,000 sequences, median “E-score (-0.5 to 0.5)” near -0.032, cut for the highest 2% near 0.36. This is one part of the list.

Target: T1, Sko1 (UniProt Q02100)
T1 sequence: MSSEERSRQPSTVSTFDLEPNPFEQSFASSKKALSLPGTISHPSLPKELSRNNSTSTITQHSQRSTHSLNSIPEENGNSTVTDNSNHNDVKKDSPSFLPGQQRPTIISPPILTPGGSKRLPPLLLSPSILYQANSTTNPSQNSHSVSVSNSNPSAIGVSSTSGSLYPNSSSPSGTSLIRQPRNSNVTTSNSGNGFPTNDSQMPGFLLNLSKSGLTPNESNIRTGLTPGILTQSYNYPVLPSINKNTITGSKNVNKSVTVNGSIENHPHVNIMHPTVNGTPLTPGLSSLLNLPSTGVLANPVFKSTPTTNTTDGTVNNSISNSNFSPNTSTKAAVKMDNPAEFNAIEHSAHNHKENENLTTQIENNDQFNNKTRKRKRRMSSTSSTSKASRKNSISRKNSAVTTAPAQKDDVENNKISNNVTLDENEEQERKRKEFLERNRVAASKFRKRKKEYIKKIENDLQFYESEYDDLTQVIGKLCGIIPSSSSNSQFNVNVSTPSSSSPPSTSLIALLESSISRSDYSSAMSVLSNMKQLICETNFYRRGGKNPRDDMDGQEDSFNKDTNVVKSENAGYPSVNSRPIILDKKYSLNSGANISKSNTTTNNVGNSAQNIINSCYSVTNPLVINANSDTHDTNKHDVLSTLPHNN
Assay: PBM E-score (8-mer binding enrichment) (E-score (-0.5 to 0.5)); higher = stronger / more preferred TF binding; most listed sequences are background and not binding sites
Settings: protein concentration: 200 nM; construct: GST-full length
Procedure: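 Universal 'all 10-mer' protein binding microarrays (Agilent AMADID 015681) probed with GST-tagged S. cerevisiae TFs (full-length or DBD) made by in vitro transcription/translation (PURExpress), about 100-200 nM. Bound TF was detected with fluorescent anti-GST. Each ungapped 8-mer (which stands for itself and its reverse complement) is scored by the PBM enrichment score (E-score), a modified Wilcoxon-Mann-Whitney statistic from -0.5 to +0.5, computed with the Universal PBM Analysis Suite. Scale: above 0.35 generally sequence-specific binding.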

| Sequence | PBM E-score |
| --- | --- |
| AACTGGAG | -0.258 |
| ATAGAAAC | 0.168 |
| AACGTATC | 0.353 |
| CCGGTACC | -0.0689 |
| AGGTCTGC | -0.317 |
| GTAACGGA | 0.191 |
| AAGAGCTT | -0.156 |
| GTAAGGAC | -0.0853 |
| ACAGGACG | 0.0775 |
| GTTTAAAC | 0.28 |
| AATACTAC | 0.306 |
| ACGCTATC | 0.238 |
| AGTAGACG | 0.302 |
| GAAGTGTA | -0.125 |
| CCTCCGTC | -0.221 |
| GCGTGCCA | -0.151 |
| ATACTATC | 0.0481 |
| GATTCCAA | -0.05 |
| CCCAGGAC | -0.332 |
| CGTGTAAG | 0.218 |
| TATGACCA | 0.178 |
| GCTCGTCA | 0.351 |

| Sequence | PBM E-score |
| --- | --- |
| GGCTAACC | -0.268 |
| CTAATGTA | 0.14 |
| GAAGAAAC | 0.056 |
| AAACTAAA | 0.214 |
| ACAGCTAC | -0.0244 |
| GTAGGTAA | 0.0801 |
| TAACCACA | 0.115 |
| ATAACGCA | 0.284 |
| CCGGAAAG | -0.158 |
| CATCGCTA | 0.13 |
| TGTAAACA | 0.206 |
| CGGGAAAG | -0.185 |
| ACGGTCAT | 0.218 |
| CTCTGACC | -0.133 |
| CTTCTGTC | 0.0332 |
| CGCATTTC | 0.151 |
| ACATGTAC | 0.0467 |
| ACCCATGA | -0.0642 |
| GCATACCA | -0.0866 |
| ACCCCCGA | -0.144 |
| TGGATCAA | -0.00178 |
| ACGGATGC | 0.0575 |

| Sequence | PBM E-score |
| --- | --- |
| CCAAATCA | 0.0467 |
| CACGGAGC | -0.0891 |
| GGACGTAA | 0.426 |
| GGGAACTA | -0.0345 |
| GATGAAGA | -0.159 |
| GGCTCCAA | -0.191 |
| AGAGTGGC | -0.046 |
| GAGCCCGC | -0.24 |
| ATCGCATC | -0.0527 |
| AGTCTGTA | -0.0432 |
| ATAGACCC | 0.0351 |
| CAGTCGAC | 0.119 |
| ACAGGCAT | -0.0532 |
| AGCCGGAG | 0.0107 |
| AGGATCGA | -0.0992 |
| CCTGAACC | 0.0606 |
| GTATACAC | 0.234 |
| CCATGTCA | 0.149 |
| GGCAGCCC | -0.345 |
| GAAGGCAC | -0.0367 |
| AGCAAGCG | -0.0581 |
| CCTTGGAC | -0.0827 |

| Sequence | PBM E-score |
| --- | --- |
| CTTAGTGC | -0.158 |
| GGGGACAC | -0.203 |
| GTTGCGCA | 0.0149 |
| TGTCCAAA | 0.0638 |
| GTGTCCGA | 0.0394 |
| AAGACCTT | 0.0103 |
| ATTCCGTC | 0.154 |
| CACCGGGC | -0.343 |
| GGGGGTGA | -0.175 |
| AACCCACT | 0.0154 |
| AGGAGGAT | -0.12 |
| AAGCCTAC | 0.0793 |
| ACCAGCCT | -0.272 |
| GCTTGTCC | -0.105 |
| CCAGCGAG | -0.287 |
| CCCGCTTC | -0.286 |
| GTTAAAAA | 0.22 |
| ATCAATTC | -0.0583 |
| CTTGGAAA | -0.0507 |
| GCCACCGA | -0.0905 |
